# The full ranking holds about 33,000 sequences; the median of “E-score (-0.5 to 0.5)” is about -0.053, and the highest 2% start at about 0.37. The list shows a part of the results.
# Biological target: Hap1 (UniProt P0CE41)
# Test: PBM E-score (8-mer binding enrichment) (E-score (-0.5 to 0.5)); higher = stronger / more preferred TF binding; most listed sequences are background and not binding sites
# Conditions: protein concentration: 200 nM; construct: GST-DNA-binding domain
# Procedure, shortened: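 Full-length yeast transcription factors or their DNA-binding domains, GST-tagged and expressed with PURExpress, were applied at about 100-200 nM to universal all-10-mer Agilent arrays. These arrays had been made double-stranded by primer extension on fresh or once-stripped slides. Detection used fluorescent anti-GST, normalisation used masliner, and E-scores for ungapped eight-base words pooled with reverse complements came from the Universal PBM Analysis Suite.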
# Chain of UniProt P0CE41 (P0CE41 whole entry): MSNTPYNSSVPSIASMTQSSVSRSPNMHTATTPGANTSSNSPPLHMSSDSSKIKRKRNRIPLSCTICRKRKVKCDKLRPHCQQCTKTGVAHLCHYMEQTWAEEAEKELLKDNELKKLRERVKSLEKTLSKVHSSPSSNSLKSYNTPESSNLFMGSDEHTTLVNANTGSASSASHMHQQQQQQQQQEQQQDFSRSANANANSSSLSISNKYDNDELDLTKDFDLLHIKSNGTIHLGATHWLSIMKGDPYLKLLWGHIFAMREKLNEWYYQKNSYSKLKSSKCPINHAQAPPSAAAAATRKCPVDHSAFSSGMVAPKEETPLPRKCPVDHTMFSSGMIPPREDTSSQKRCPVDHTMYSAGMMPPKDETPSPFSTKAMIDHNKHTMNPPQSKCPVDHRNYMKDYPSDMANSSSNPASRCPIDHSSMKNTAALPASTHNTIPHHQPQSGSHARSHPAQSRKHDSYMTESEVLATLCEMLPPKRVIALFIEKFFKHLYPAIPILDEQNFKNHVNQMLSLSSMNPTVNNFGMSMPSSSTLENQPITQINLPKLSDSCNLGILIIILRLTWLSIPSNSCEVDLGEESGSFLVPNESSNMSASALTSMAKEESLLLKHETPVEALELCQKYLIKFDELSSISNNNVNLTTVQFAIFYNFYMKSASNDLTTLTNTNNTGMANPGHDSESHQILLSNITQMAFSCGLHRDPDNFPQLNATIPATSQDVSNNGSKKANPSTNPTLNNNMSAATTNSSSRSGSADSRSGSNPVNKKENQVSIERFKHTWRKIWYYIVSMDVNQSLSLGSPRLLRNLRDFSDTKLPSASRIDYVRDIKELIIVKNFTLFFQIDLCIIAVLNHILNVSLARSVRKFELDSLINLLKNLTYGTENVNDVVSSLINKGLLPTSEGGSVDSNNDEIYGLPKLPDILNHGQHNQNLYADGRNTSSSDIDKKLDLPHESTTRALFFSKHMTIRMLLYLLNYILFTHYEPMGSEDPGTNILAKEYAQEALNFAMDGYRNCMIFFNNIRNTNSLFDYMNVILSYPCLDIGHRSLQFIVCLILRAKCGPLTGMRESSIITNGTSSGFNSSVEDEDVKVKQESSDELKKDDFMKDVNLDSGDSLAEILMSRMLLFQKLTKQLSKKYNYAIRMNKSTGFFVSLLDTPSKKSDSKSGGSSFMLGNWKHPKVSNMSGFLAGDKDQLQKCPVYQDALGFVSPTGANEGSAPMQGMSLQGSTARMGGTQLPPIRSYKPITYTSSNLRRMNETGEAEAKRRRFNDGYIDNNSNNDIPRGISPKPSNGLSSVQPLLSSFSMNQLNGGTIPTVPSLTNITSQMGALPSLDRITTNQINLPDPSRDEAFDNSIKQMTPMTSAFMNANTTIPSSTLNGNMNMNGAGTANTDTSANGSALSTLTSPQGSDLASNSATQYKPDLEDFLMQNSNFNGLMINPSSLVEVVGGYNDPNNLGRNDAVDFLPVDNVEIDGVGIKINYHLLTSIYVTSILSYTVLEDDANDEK
row,Sequence,PBM E-score
1,ACCAACCA,-0.0133
2,CAGGGACC,-0.23
3,CGTCGTTC,0.119
4,CAGGTAAA,-0.0534
5,CACACCGA,0.191
6,GGTTGACA,-0.183
7,ACATAACT,0.0696
8,AGTTTGGG,-0.0621
9,AGCGGATC,0.278
10,AATCAGTG,-0.0747
11,AATGATGC,-0.0623
12,AGCAAAAC,-0.123
13,CCGTTAAG,0.275
14,GATCAGCC,-0.11
15,TGCAATAA,-0.0651
16,CGGATTGA,0.252
17,AACGTGAC,-0.109
18,CGGTAGAA,0.127
19,ATTGACGG,0.187
20,ACCCGCTA,0.209
21,AGAAGTAA,-0.0663
22,ATTCTGTA,-0.143
23,CGACACCC,0.0398
24,CGCATCTA,0.165
25,CATGTCCC,-0.054

row,Sequence,PBM E-score
1,AAATTATG,-0.0384
2,AAGTGGTC,0.0343
3,CTGCCATC,-0.0511
4,GAGGTACC,0.0324
5,CAGTTTAA,-0.0695
6,ACCTGGGA,-0.229
7,CCGCAGTA,-0.0533
8,GTAAGCAA,-0.00551
9,ACATTAGT,-0.105
10,TACGAGGA,-0.0483
11,AATACTTA,0.0213
12,CTTTTGGC,-0.0793
13,AATGCAAC,-0.176
14,TAATTCGA,-0.237
15,ATACTTAA,0.077
16,CTGACATC,0.0186
17,ATTTCAGC,-0.108
18,ATGCTTTA,-0.262
19,TCCTGCGA,0.0234
20,GGCGCGCA,0.142
21,CGGAGGTA,0.443
22,AGAGGTCG,0.0391
23,AGCTTTTC,0.057
24,CTTGTAAC,-0.0628
25,AGGTTACG,-0.0478

row,Sequence,PBM E-score
1,CTCGAGTA,-0.0996
2,CTATAAGA,-0.309
3,GCCCTTAC,-0.0266
4,ACCACCAG,-0.188
5,CAGGGGCC,-0.171
6,ACTCGAGA,-0.126
7,GCGGGCAC,0.198
8,CTCCTCAG,-0.24
9,TCCGTCGA,0.228
10,GTCATCGA,-0.19
11,TCGAAACA,-0.102
12,CTTCCAGC,-0.177
13,CCACAATC,0.0208
14,ATCATATA,-0.191
15,CTCCTATA,-0.327
16,CGTGCCTC,0.0396
17,GAACTGAA,-0.0389
18,TAAGGACA,-0.119
19,GCACTTAC,0.0278
20,AGTCCGGC,0.389
21,ACATAGAG,-0.254
22,ACGTCTGA,-0.00548
23,CAGGAAGA,-0.112
24,ACAATGCT,-0.227
25,CTGACACC,0.0376

row,Sequence,PBM E-score
1,ACGGACCA,0.344
2,TGGATTAA,-0.166
3,CTCCCGTA,-0.0597
4,AGCCGAAA,0.329
5,CGCTGACA,0.0128
6,GGCTTGCA,-0.00494
7,AATTTACC,0.0607
8,GTGCTAAC,0.161
9,CGACCGCA,0.192
10,AAGATGAT,-0.157
11,AATGACTA,-0.25
12,ATGTGGGG,-0.118
13,AGCTGTAG,-0.11
14,ACATTGGT,-0.144
15,GCCCCCAA,-0.422
16,GGTAGAAC,-0.243
17,ACTATAAG,-0.211
18,GAGGTGGC,-0.137
19,CAAAGAGG,-0.142
20,GATTCATA,-0.0307
21,AATCGACT,-0.185
22,CAATAGCC,-0.168
23,CTAGGAGC,-0.0766
24,CCTCGCTC,0.0166
25,TGGTTCAA,-0.107

row,Sequence,PBM E-score
1,ACGTGACT,-0.183
2,CCTAGCAA,-0.279
3,GACACGAC,-0.16
4,CTAAGGCA,-0.122
5,ACACGCGC,0.037
6,CGTCCCAC,0.0644
7,AATCGTAG,-0.15
8,CTCGAATA,-0.0719
9,GAGTTGCA,-0.0678
10,CCGCACAA,0.031
11,AAAGAATT,-0.0164
12,ATGCACCG,0.238
13,CACAGGTG,-0.245
14,CTGCCCAA,-0.0313
15,GTTGACAA,-0.0513
16,ATACGTGC,0.0178
17,AACTACCC,-0.044
18,AAGGTAGA,-0.187
19,AGATTTAA,0.0293
20,GAAAGAAA,0.00895
21,GCTACTGA,-0.0813
22,CCTGCAAA,-0.195
23,CAGTGACC,-0.0846
24,ACTCCCGA,0.2
25,AACGGTAA,0.186

row,Sequence,PBM E-score
1,GTAGGGTA,-0.0927
2,GTAAGCAC,-0.205
3,TACAAGAA,-0.0692
4,CTAGTCAC,-0.0372
5,CCGGGCTA,0.347
6,CAGGGTAG,-0.0609
7,AGTCTACG,-0.252
8,GGTCCACC,0.0592
9,AGCAACAC,-0.0467
10,AGCTATCA,-0.16
11,GTCCAGAC,-0.215
12,GTCGTAAA,0.0319
13,CCAACACC,-0.127
14,AAAGTGTG,-0.327
15,AAAACTCC,0.22
16,ATTGGGAG,-0.127
17,ACCAAAGA,-0.0325
18,TAGCAATA,0.0382
19,CACTACTC,0.0257
20,AGAACAAT,-0.146
21,CGTATAGC,0.157
22,AAATTCGA,-0.109
23,GGCATTGA,0.115
24,AGATCGAC,-0.0629
25,TCCACACA,-0.147

row,Sequence,PBM E-score
1,CTAAAAAG,-0.101
2,CAGTGTCG,-0.0888
3,GCCAAGGC,-0.282
4,AATATTTA,-0.113
5,ATGCACTG,-0.261
6,ACACGGTC,-0.00889
7,AGTTACAG,-0.131
8,CACGATAG,-0.138
9,CCAAATGA,0.00146
10,GCAGTCAA,-0.217
11,AGCTGGGC,-0.00364
12,AGCGGAAT,0.168
13,CGAACGCC,0.116
14,GATCATTA,0.144
15,ACTCTCAC,-0.219
16,AGATACTG,-0.126
17,CATAATAA,-0.0392
18,AATTGCGT,0.141
19,CACACAGC,-0.159
20,CCTGAATA,-0.0801
21,AATATTGC,0.0342
22,AATGACGA,-0.158
